Laboratory results from PubChem BioAssay AID686970 (National Center for Advancing Translational Sciences (NCATS), 2013).
Among all 360,000 compounds or so, about 6,000 (1.7%) were called active. The shares of active, inactive and inconclusive entries below differ from those in the screen. Calls come from the whole dose curve; as a rule, active = well fitted cell-killing curve with a large enough effect; inconclusive = small, poorly fitted or top-dose-only effect, or effect the other way; inactive = flat fitted curve, though single readings scatter. No potency is given beside an inconclusive call; the fits are too rough.
Potency is the fitted concentration of half-maximal effect; tags give direction and shape of the fitted curve.

Assay: qHTS for induction of synthetic lethality in tumor cells producing 2HG: qHTS for the HT-1080-NT fibrosarcoma cell line;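 note: NT is the 2HG producing partner of a matched IDH1 knockdown line; nearly all actives have a fitted effect of over 55% in size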;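 for activity, negative = less viability: 0% = DMSO-treated cells and -100% = media-only wells without cells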
Conditions: HT-1080-NT fibrosarcoma viability, CellTiter-Glo ATP luminescence, 48 h; activity, negative = less viability: at 46.1 µM (top of the series) unless noted
Outline: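 750 cells/well, RPMI + 5% FBS; 2 h settle, compound pin-transfer, 48 h at 37 degrees C. CellTiter-Glo 10 min RT, luminescence. Normalized to DMSO and media-only wells.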
For `Cc1ccccc1C(=O)N1CCN(c2ccc(NC(=S)NC(=O)c3cccs3)cc2)CC1`, the Potency was inconclusive [cytotoxic, single point]. With `COc1cccc(CCN2CCC(CNS(=O)(=O)c3cc(-c4cc(C)no4)ccc3OC)CC2)c1` the Potency was inconclusive [cytotoxic, single point]. With `CC[n+]1c(/C=C2\Sc3ccccc3N2C)ccc2cccc(C)c21` the Potency was active: 13 µM. In the case of `CCCN(CC(=O)NC(=O)NCc1ccccc1)CC(=O)Nc1ccc(F)c(F)c1F`, the Potency is reported as inconclusive [cytotoxic, single point]. For `Cn1c2c(c(O)c(-c3ccccc3)c1=O)C(=O)CC(C)(C)C2`, the Potency was inconclusive [rising, partial curve]. With `O=C1c2ccccc2C(=O)N1CN(C(=O)c1ccccc1)c1ccc(O)cc1` the “activity, negative = less viability” value was inactive: 11.1%. In the case of `O=C(Cn1ccc2cc(S(=O)(=O)N3CCCC3)ccc21)NCc1ccco1`, the “activity, negative = less viability” value is reported as inactive: -0.287%. In the case of `O=C(O)C1CCC(N2C(=O)c3cccc([N+](=O)[O-])c3C2=O)CC1` (configuration not stated), the “activity, negative = less viability” value is reported as inactive: 4.08%. With `CC(=O)NC(c1cccs1)c1cc([N+](=O)[O-])c2cccnc2c1O` (configuration not stated) the Potency was inconclusive [cytotoxic, partial curve]. For `Clc1ccc(-c2nc(-c3cc4cc(Cl)ccc4o3)cs2)cc1`, the “activity, negative = less viability” value was inactive: -4.32%. For `O=C(Nc1ccc(S(=O)(=O)N2CCOCC2)cc1)c1ccc(CN2CCc3ccccc3C2)cc1`, the Potency was inconclusive [cytotoxic, partial curve]. With `CCc1nc2c(OCc3ccccc3C)cccn2c1N(C)C(=O)C1CC1` the Potency was inconclusive [rising, single point]. With `CCOC(=O)c1c(-c2ccc(C)o2)csc1NC(=S)NC(=O)N(C)C` the Potency was active: 10 µM. For `Cc1ccc(C(=O)Nc2cccc(C(F)(F)F)c2)cc1NC(=O)c1ccno1`, the Potency was “inactive”. In the case of `CCC(=O)Oc1ccc(C(=O)Nc2ccc3c(c2)OCO3)cc1`, the Potency is reported as inconclusive [cytotoxic, partial curve]. With `O=C(CNC1CCCCC1)Nc1cccc(C(F)(F)F)c1` the Potency was inconclusive [cytotoxic, single point]. For `CCOC(=O)C1=C(C)NC(C)=C(C(=O)OCC)C1C(=O)OCC(=O)N(C)C`, the activity, negative = less viability was inconclusive: 31%. For `CN(Cc1cccc(Cl)c1Cl)C(=O)c1ccccc1SCC(=O)N1CCCC1`, the Potency was inconclusive [cytotoxic, single point]. For `COc1ccc(-c2n[nH]nc2C2=CC(=O)CC(C)(C)C2)cc1`, the “activity, negative = less viability” value was inactive: -12.3%. In the case of `O=C(Nc1ccc(Cl)cn1)c1cccc(S(=O)(=O)N2CCCC2)c1`, the “activity, negative = less viability” value is reported as inactive: -12.9%. In the case of `OC1COC(O)C(O)C1O` (configuration not stated), the Potency is reported as inconclusive [rising, partial curve]. With `CC[C@]12c3[nH]c4ccccc4c3CCN1C(=O)C(CC(=O)NCc1cccc(C(F)(F)F)c1)C[C@@H]2C(=O)N1CCN(C(=O)C2CC2)CC1` (some centres not stated) the “activity, negative = less viability” value was inactive: -3.44%. For `COc1cccc(-c2cnc3c(NC=O)cc(-c4cc(C)c(O)c(C)c4)cn23)c1`, the Potency was inconclusive [cytotoxic, full curve, poor fit]. For `CC(=O)N1CCN(c2ccccc2NC(=O)COc2cc(C)ccc2C(C)C)CC1`, the Potency was inconclusive [cytotoxic, single point]. For `CCOc1ccc(NC(=O)Cn2nnc(C(=O)NCc3ccc(OC)cc3)c2N)cc1`, the Potency was inconclusive [cytotoxic, partial curve]. With `Cc1ccc(C23CC4CC(CC(CN)(C4)C2)C3)cc1` the Potency was active: 18.4 µM. In the case of `Cc1cc(C)c2nc(N3C(=O)C(O)=C(C(=O)c4ccco4)C3c3ccco3)sc2c1` (configuration not stated), the Potency is reported as inconclusive [cytotoxic, single point]. For `COC(=O)C[C@H]1CC[C@@H](NC(=O)C2CC2)[C@@H](CO)O1`, the “activity, negative = less viability” value was inactive: 17.2%. With `Cc1ccc(NS(=O)(=O)c2ccc(NC(=O)CN(c3cc([N+](=O)[O-])ccc3C)S(C)(=O)=O)cc2)c(C)c1` the Potency was inconclusive [cytotoxic, single point]. In the case of `Fc1ccccc1CN1CCCN(C(=S)Nc2cccc(Cl)c2)C1`, the Potency is reported as inconclusive [cytotoxic, partial curve]. With `NC(=O)C1=C[C@@H](c2csc3ccccc23)C[C@@H](OCc2ccc(CO)cc2)O1` the Potency was inconclusive [cytotoxic, single point]. With `O=C(CN1CCN(c2ccccc2O)CC1)Nc1cc(S(=O)(=O)N2CCCC2)ccc1Cl` the “activity, negative = less viability” value was inactive: -14.2%. For `CCc1ccc(CN(C)CC(=O)Nc2sccc2C#N)cc1`, the “activity, negative = less viability” value was inactive: 0.952%. For `O=C(Nc1cccc(F)c1)NC1CCCc2ccccc21` (configuration not stated), the Potency was inconclusive [cytotoxic, single point]. With `O=C(/C=C/c1cccnc1)c1ccc(O)cc1` the Potency was inconclusive [cytotoxic, single point]. With `C=CCC[C@@H](Cc1ccc(F)cc1)C(=O)OC[C@@H](Cc1ccccc1)NC(=O)[C@@H](CC=C)CC(=O)N[C@@H](CO)Cc1ccccc1` the “activity, negative = less viability” value was inactive: -3.87%. For `CCc1ccc(-c2cc(C(=O)N/N=C/c3c[nH]c4ccccc34)[nH]n2)cc1`, the Potency was active: 5.17 µM. In the case of `C=CCN(CC=C)Cc1cc(=O)oc2ccc3ccccc3c12`, the Potency is reported as inconclusive [cytotoxic, single point]. In the case of `Cc1cc(NC(=O)c2cc(-c3ccccc3Cl)nc3ccccc23)no1`, the Potency is reported as inconclusive [cytotoxic, single point]. With `CSc1ccc(/C=C(\C(=O)O)c2ccc(S(=O)(=O)N3CCCC3)s2)cc1` the “activity, negative = less viability” value was inactive: -0.0004%. With `Cc1ccc(-n2ncc3c(SCc4cccnc4)ncnc32)c(C)c1` the Potency was inconclusive [cytotoxic, full curve]. For `COc1ccc(C=CC(=O)c2ccc(OC)c(OC)c2O)cc1OC`, the Potency was inconclusive [cytotoxic, single point]. In the case of `CN(C)CCCN(C(=O)c1ccc2c(c1)CCCC2)c1nc2ccc(Cl)cc2s1`, the Potency is reported as inconclusive [cytotoxic, single point]. With `Cc1cc(Nc2ccc3c(c2)OCCO3)n2ncnc2n1` the “activity, negative = less viability” value was inactive: 3.24%. For `COc1cc(C(=O)N/N=C/c2sccc2C)cc(OC)c1OC`, the Potency was active: 0.517 µM. In the case of `CCc1nnc(NC(=O)CSc2nnc(-c3ccccc3O)n2-c2ccc(C)cc2C)s1`, the Potency is reported as active: 4.61 µM. With `Cc1cccc(N2CCN(C(=O)c3ccccn3)CC2C)c1` (configuration not stated) the Potency was inconclusive [rising, partial curve]. With `C(=N\n1cnnc1)/c1ccc2c(c1)OCO2` the activity, negative = less viability was inconclusive: 14.4%. With `O=C(Cc1coc2cc3c(cc12)CCC3)NCC1(N2CCCCC2)CCCCC1` the Potency was inconclusive [cytotoxic, partial curve]. For `C=CCn1cnc2c(nnn2-c2ccc(OC)c(OC)c2)c1=O`, the Potency was inconclusive [rising, single point]. With `Cc1cc(/C=C2\SC(=Nc3ccc(F)cc3)NC2=O)c(C)n1-c1ccc(S(N)(=O)=O)cc1` the Potency was active: 6.51 µM. In the case of `COc1ccc(OC)c(CC(NC(C)=O)C(=O)NC2CCN(c3nnnn3-c3ccccc3)CC2)c1` (configuration not stated), the Potency is reported as inconclusive [rising, single point]. In the case of `CC(=O)c1ccc(-c2ccc(C(=O)Nc3nc(-c4ccccn4)cs3)o2)cc1`, the Potency is reported as inconclusive [cytotoxic, full curve]. For `Cc1[nH]c2ccc(-c3n[nH]c(=S)n3Cc3ccccc3)cc2c1C`, the Potency was inconclusive [cytotoxic, single point]. In the case of `CC1CCC(NC(=O)COC(=O)CCC(=O)c2ccc(Cl)s2)CC1` (configuration not stated), the “activity, negative = less viability” value is reported as inactive: 6.38%. With `Cc1cc(C)n(-c2nnc3c4ccccc4n(C)c3n2)n1` the activity, negative = less viability was inconclusive: 16.3%. For `CC(C)OCCCNC(=O)c1cccc(NC(=O)c2ccccc2)c1`, the “activity, negative = less viability” value was inactive: 14.1%. In the case of `COc1cc2cc(CCCO)oc(=O)c2cc1OC`, the “activity, negative = less viability” value is reported as inactive: 12.9%. In the case of `CC1c2ccccc2N(S(=O)(=O)c2ccccc2)C1C` (configuration not stated), the Potency is reported as inconclusive [cytotoxic, single point]. For `COc1ccc(CCNC(=O)/C(C#N)=C/c2cccc(OCc3ccccc3)c2)cc1OC`, the Potency was inconclusive [cytotoxic, single point]. With `COc1ccc(C(CNc2ccc(S(=O)(=O)N3CCCC3)cc2[N+](=O)[O-])N2CCCC2)cc1` (configuration not stated) the Potency was inconclusive [cytotoxic, partial curve]. In the case of `O=C(NCc1cccnc1)c1cc(C2CCCN(S(=O)(=O)c3cccc4cccnc34)C2)on1` (configuration not stated), the “activity, negative = less viability” value is reported as inactive: 5.42%. For `Cn1nc(NC(=O)C(C)(C)C)c2c(F)cccc21`, the “activity, negative = less viability” value was inactive: 10.1%. With `CCN(CC)CCCNC(=O)c1cc2c(=O)n(CC)c3ccccc3c2s1` the Potency was inconclusive [cytotoxic, single point]. With `Cc1cccc(N=N/C(=C\O)C(=O)c2ccc(Br)cc2)c1` the activity, negative = less viability was inconclusive: -21.9% [cytotoxic]. In the case of `O=C(NCCN1CCC(n2c(=O)[nH]c3ccccc32)CC1)c1ccc(Cl)c(Cl)c1`, the Potency is reported as active: 20.6 µM. With `CC1=C(C(=O)c2ccccc2)C(c2cn(-c3ccccc3)nc2-c2ccc(Cl)cc2)NC(=S)N1` (configuration not stated) the Potency was inconclusive [cytotoxic, single point]. With `COC(=O)C1=CO[C@@H](O)C2C(CO)=CCC12` (some centres not stated) the Potency was inconclusive [cytotoxic, single point]. With `COc1ccc2nc(C)cc(NCc3cccc(C(F)(F)F)c3)c2c1` the Potency was active: 23.1 µM. With `O=C(N/C(=C/c1cccs1)C(=O)N1CCOCC1)c1ccccc1` the “activity, negative = less viability” value was inactive: 0.787%. With `Cc1cc(C)c2nc3sc(C(=O)N4CCOCC4)c(N)c3cc2c1` the Potency was active: 0.206 µM. In the case of `COc1cc(CNCCO)ccc1OCC(=O)Nc1ccc(Br)cc1`, the Potency is reported as inconclusive [cytotoxic, single point].
